Assay results taken from article PMC8080764.
No constants are given. Whether binding was seen depends on the method and setting. Binding seen in cells or lysates may run through a third protein. Some results given as binding are weak or reduced against the parent protein; the word gives no strength.

Target: T1, serum response factor (SRF), endogenous in C2C12 cells (mouse (endogenous in C2C12)) (UniProt Q9JM73)
T1 sequence: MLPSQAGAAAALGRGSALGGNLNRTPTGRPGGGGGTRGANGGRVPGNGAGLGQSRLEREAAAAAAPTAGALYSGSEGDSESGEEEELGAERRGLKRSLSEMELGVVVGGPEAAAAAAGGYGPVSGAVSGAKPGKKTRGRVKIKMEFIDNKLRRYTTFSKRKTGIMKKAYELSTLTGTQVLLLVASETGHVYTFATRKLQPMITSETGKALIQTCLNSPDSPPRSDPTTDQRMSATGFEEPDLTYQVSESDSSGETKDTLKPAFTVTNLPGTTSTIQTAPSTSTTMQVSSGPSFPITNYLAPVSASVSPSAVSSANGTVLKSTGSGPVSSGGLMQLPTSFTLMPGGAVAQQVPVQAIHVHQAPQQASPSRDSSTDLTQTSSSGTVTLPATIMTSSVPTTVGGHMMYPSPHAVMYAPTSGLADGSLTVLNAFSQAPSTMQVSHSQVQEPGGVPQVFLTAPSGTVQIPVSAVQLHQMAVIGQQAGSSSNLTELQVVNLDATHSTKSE
Test: co-IP; endogenous SET7 and SRF in C2C12 cells in growth medium (GM) or differentiation medium (DM); 0.5% NP40 lysis buffer

B1: SET7, endogenous in C2C12 cells (enzyme, UniProt Q8VHL1 1-366)
chain: MDSDDEVVEEAVEGHLDDDGLPHGFCTVTYSSTDRFEGNFVHGEKNGRGKFFFFDGSTLEGYYVDDALQGQGVYTYEDGGVLQGTYVDGELNGPAQEYDSDGRLIFKGQYKDNNRHGVCWIHYPDGGSLVGEVNEDGEMTGEKIAYVYPDQRTALYGKFIDGEMLEGKLATLMATEEGRPHFEVTSGSSVYHFDKSTSSCISSDALLPDPYESERVYVADSLISSAGEGLFSKVAVGPNTVMSFYNGVRITHQEVDSRDWALNGNTLSLDEETVIDVPEPYNHVSKYCASLGHKANHSFTPNCVYDLFVHPRFGPIKCIRTLRAVEAEEELTVAYGYDHSPPGKSGPEAPEWYQVELKAFQATQQK
binding: binds
